Assay results published in article PMC4336329 (PLoS ONE, 2015).
The whole screen tested about 310,000 compounds, of which about 14,000 (4.5%) showed an effect of 50% or more. The effect is printed as a negative number. The list shows a part of the results.

Biological target: human ether-à-go-go-related gene (hERG) potassium channel (human, UniProt Q12809)
Assay: primary screen, population patch clamp on CHO cells stably expressing hERG
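Note: peak tail current of the secondary pulse compared with the same well before compound.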

Sequence of human ether-à-go-go-related gene (hERG) potassium channel (Q12809 whole entry, looked up): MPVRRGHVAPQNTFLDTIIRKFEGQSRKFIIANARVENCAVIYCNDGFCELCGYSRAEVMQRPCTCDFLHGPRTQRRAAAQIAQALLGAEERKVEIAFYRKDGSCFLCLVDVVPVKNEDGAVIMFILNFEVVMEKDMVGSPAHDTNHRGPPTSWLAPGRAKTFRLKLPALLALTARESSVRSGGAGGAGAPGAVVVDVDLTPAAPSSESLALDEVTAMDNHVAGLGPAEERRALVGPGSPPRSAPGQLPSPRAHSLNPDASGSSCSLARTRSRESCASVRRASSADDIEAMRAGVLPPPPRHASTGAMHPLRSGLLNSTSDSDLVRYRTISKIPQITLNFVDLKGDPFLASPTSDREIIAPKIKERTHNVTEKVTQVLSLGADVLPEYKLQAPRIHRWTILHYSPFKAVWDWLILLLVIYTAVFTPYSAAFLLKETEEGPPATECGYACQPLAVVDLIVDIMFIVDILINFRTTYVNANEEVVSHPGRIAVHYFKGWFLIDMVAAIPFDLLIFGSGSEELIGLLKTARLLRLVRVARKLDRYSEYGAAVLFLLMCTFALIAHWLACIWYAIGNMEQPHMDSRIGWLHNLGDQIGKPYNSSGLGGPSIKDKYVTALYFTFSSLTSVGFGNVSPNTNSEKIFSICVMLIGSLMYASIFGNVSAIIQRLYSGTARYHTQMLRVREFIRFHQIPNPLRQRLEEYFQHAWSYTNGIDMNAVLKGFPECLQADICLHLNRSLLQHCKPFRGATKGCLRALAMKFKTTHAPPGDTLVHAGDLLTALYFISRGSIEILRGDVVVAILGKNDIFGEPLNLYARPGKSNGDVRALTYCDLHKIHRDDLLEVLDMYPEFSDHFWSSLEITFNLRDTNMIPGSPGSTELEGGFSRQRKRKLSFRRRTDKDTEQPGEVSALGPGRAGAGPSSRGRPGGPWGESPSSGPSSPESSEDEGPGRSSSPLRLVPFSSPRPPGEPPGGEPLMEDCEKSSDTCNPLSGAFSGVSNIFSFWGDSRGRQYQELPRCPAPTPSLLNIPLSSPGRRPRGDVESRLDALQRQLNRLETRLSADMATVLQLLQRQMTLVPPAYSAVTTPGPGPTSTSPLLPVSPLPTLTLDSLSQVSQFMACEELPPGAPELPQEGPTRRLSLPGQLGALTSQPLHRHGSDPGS

Point of comparison: `CCOC(=O)c1cnc2c(C)cccc2c1NCCc1ccc(OC)c(OC)c1`, “hERG current change (%, negative = inhibition) at 10uM” value -66.9%. Against it:
- Cc1ccc(CNC(=O)C2CCN(S(=O)(=O)c3c(C)noc3/C=C/c3ccco3)CC2)cc1 — higher, -19.7%
- CCOC(=O)N1CCN(Cc2nc(CC3CC3)no2)CC1 — higher, 7.64%
- O=C(Nc1ccc(O)c2c(=O)cc(-c3ccccc3Cl)oc12)c1ccc(Cl)c(Cl)c1 — higher, 27.7%
- O=C(NCc1cn2ccsc2n1)c1cccs1 — higher, 2.47%
- C=CCn1c(SCc2nc3sc(C(=O)O)c(C)c3c(=O)[nH]2)nnc1-c1ccc(F)cc1 — higher, 11.1%
- O=C(CC1S/C(=N\S(=O)(=O)c2ccccc2)N(c2ccccc2)C1=O)Nc1ccc(F)cc1 (stereo not drawn) — higher, -3.33%
- CCOc1ccccc1NC(=O)COC(=O)C(CC)c1ccccc1 (stereo not drawn) — higher, -21.3%
- Cc1ccc(N2CN(S(=O)(=O)c3cccc([N+](=O)[O-])c3)c3nc4ccccc4nc32)cc1 — higher, 1.25%
- CNC(=O)/C(C#N)=C/c1cc(C)n(-c2ccc(N3CCOCC3)cc2)c1C — higher, 17%
- O=C(OC(c1ccc(NS(=O)(=O)c2ccccc2)cc1)(C(F)(F)F)C(F)(F)F)c1ccccc1 — higher, -6.82%
- CCn1c2ccccc2c2cc(NC(=O)CSc3nnc(-c4cccc(C)c4)o3)ccc21 — higher, 9.86%
- O=C(Nc1cccc(Br)c1)c1cccc(OC(=S)N2CCOCC2)c1 — higher, -14.5%
- CCCC(=O)C1C(=O)CC(CC(C)SCC)CC1=O (stereo not drawn) — higher, -1.26%
- Cc1ccc(NC(=O)CCCNC(=O)c2ccc(Cl)cc2)c(O)c1 — higher, 0.253%
- O=C(O)COc1ccc2occ(C(=O)c3ccccc3)c2c1 — higher, -8.43%
- Cc1n[nH]c(=O)c2c(NC(=O)COC(=O)/C=C/c3cccc(C(F)(F)F)c3)oc(C)c12 — higher, -16.7%
- CCCCN(C)CCNC(=O)C(NC(=O)C1CCC(C)CC1)C(C)C (stereo not drawn) — higher, 2.79%
- NC(N)=NC(N)=Nc1ccc(O)cc1 — higher, 20.8%
- CC(CCc1ccco1)N(C)S(=O)(=O)c1csc(C(N)=O)c1 (stereo not drawn) — higher, -17.1%
- CNC(=S)N/N=C/c1ccc(-c2ccc(Cl)c([N+](=O)[O-])c2)o1 — higher, 12%
- Cc1ccc(-n2c(C)nnc2SCC(=O)Nc2ccccc2)cc1 — higher, -37.5%
- CCn1nnnc1NCc1ccc(OCc2c(F)cccc2Cl)c(OC)c1 — higher, 18.2%
- O=C(NCCCCNC(=O)C(F)(F)F)C(F)(F)F — higher, 3.9%
- O=C(NC(=S)N(CC1CCC1)CC1CCCO1)c1cccc([N+](=O)[O-])c1 (stereo not drawn) — higher, -21.1%
- CC1(C)C(=O)NC(=O)N1Cc1ccccc1 — higher, 7.33%
- CCCCC1CCc2[nH]nc(C(=O)O)c2C1 (stereo not drawn) — higher, 13.1%
- CN(Cc1cnn(Cc2ccccc2)c1)C(=O)CN=C1NS(=O)(=O)c2ccccc21 — higher, -3.51%
- CC(=O)c1ccc(NC(=O)c2cccc(S(=O)(=O)N3CCN(C)CC3)c2)cc1 — higher, -3.66%
- O=C(O)c1cc(NC(=O)c2cccc(F)c2)cc(NC(=O)c2cccc(F)c2)c1 — higher, 15.4%
- CCOC(=O)N1CCN(C(=O)CN(c2cccc(C)c2)S(=O)(=O)c2ccccc2)CC1 — higher, -19.6%
- COc1ccc(C(=O)Nc2ccc(Cl)cn2)cc1Cl — higher, 1.9%
- CCOC(=O)c1ccc(NS(=O)(=O)c2cccc3nsnc23)cc1 — higher, -14.8%
- CC(=O)Nc1cc(NC(C)=O)cc(C(=O)N2CCCC3CCCCC32)c1 (stereo not drawn) — higher, 5.24%
- Cc1ccc(S(=O)(=O)N2CCCC2C(=O)NCc2ccccc2F)cc1 (stereo not drawn) — higher, 12.4%
- Cc1c(Cl)cccc1NC(=O)Cn1c(CCC(=O)O)ccc1-c1ccc(Cl)cc1 — higher, 6.75%
- O=C(COc1ccc2ccccc2c1)N1CCCC1 — higher, -13.3%
- N#CCCN(Cc1cccnc1)C(=O)c1sc2cc(F)ccc2c1Cl — higher, -15.7%
- COc1ccc(S(=O)(=O)Nc2ccc3oc(C)c(C(=O)O)c3c2)cc1 — higher, 21.3%
- O=C(Nc1cccc(-c2nc3ccccc3o2)c1)c1cccnc1 — higher, -47.7%
- O=C(c1ccco1)N1CCN(C(=O)c2cc3c(s2)-c2ccccc2OC3)CC1 — higher, -63.9%
- O=C(c1cc(-c2cccs2)on1)N1CCN(C(c2ccccc2)c2ccccc2)CC1 — higher, 3.95%
- CCc1noc(C)c1C(=O)N1CCSC1=Nc1cccc(Cl)c1C — higher, 9.77%
- CC(C)(C)c1ccccc1OCC(=O)Nc1ccccc1C(=O)NCc1cccnc1 — higher, -3.52%
- CN(C)C=O.Cc1cc(-c2ccco2)c(C#N)c2nc3ccccc3n12 — higher, -11.4%
- C=CCNC(=O)c1oc2ccc(S(=O)(=O)N3CCC4(CC3)OCCO4)cc2c1C — higher, 0.761%
- O=S(=O)(NCC1CCCO1)c1ccccc1 (stereo not drawn) — higher, 15.6%
- CCOC(=O)c1ccccc1NC(=O)CSc1ccc(-c2ccccn2)nn1 — higher, -23.4%
- O=C(Nc1ccc(S(=O)(=O)Nc2ccccc2)cc1)c1ccc(CN2CCOCC2)cc1 — higher, -18.4%
- COCCn1cnc2c(c1=O)c1nc3ccccc3nc1n2/N=C/c1ccco1 — higher, -7.29%
- COc1ccc(CNC(=O)CCCNC(=O)c2ccc(Cl)cc2)cc1OC — higher, -1.44%
- O=C(NCc1ccc(F)cc1)c1cc(-c2cccs2)on1 — higher, -2.5%
- Cc1ccc(NC(=O)c2oc3ccc(S(=O)(=O)N4CCC5(CC4)OCCO5)cc3c2C)cc1C — higher, 0.726%
- Cc1cc(C)cc(-c2nnc(SCC(=O)N3CCN(C(=O)c4ccco4)CC3)o2)c1 — higher, -43.3%
